B1: NFE2L1 peptide 226-241 (Endoplasmic reticulum membrane sensor NFE2L1), 16-mer library wild type / KEAP1 KELCH (KEAP1 6 Kelch repeats, […]) (parent complex)
chain 1: RNLLVDGETGESFPAQ
chain 2: not shown
B2: CAPRIN1 peptide 364-379 (Caprin-1), 16-mer library wild type / G3BP1 NFT2 (G3BP1 NTF2 domain, […]) (parent complex)
chain 1: AQMQGPYNFIQDSMLD
chain 2: not shown

This passage reports screen value results from paper PMC12102759 (2025).

Variants of B1 are the subject of one test. As to the kind of experiment: proteomic peptide phage display deep mutational scan (ProP-PD DMS): M13 P8 16-mer library selected against immobilised GST-tagged bait for four days (rounds), NGS of the eluted pools per day and pseudo-replica; bait immobilised on MaxiSorp plates (10 µg), library pre-cleared on GST, 2 h binding at 4 °C, five washes; one round per day, days 1-4; value from days 2 and 3.
In the case of chain 1 L4M, the screen value was 0.000325 average fractional NGS count over selection days 2 and 3 (reads of this peptide / all reads for the bait, averaged over …. For the variant chain 1 L4P, the screen value is 0.00704 average fractional NGS count over selection days 2 and 3 (reads of this peptide / all reads for the bait, averaged over …. Consider chain 1 L4Q, for which the screen value is 0.00122 average fractional NGS count over selection days 2 and 3 (reads of this peptide / all reads for the bait, averaged over …. As for chain 1 L4W, the screen value was 0.000151 average fractional NGS count over selection days 2 and 3 (reads of this peptide / all reads for the bait, averaged over …. In the case of chain 1 L4E, the screen value is 0.000181 average fractional NGS count over selection days 2 and 3 (reads of this peptide / all reads for the bait, averaged over ….

On to chain 1 L4D, for which the screen value was 0.000281 average fractional NGS count over selection days 2 and 3 (reads of this peptide / all reads for the bait, averaged over …. Same read-out and setting: under chain 1 L4Y stands 0.000215 average fractional NGS count over selection days 2 and 3 (reads of this peptide / all reads for the bait, averaged over …; under chain 1 L4A, 0.000567 average fractional NGS count over selection days 2 and 3 (reads of this peptide / all reads for the bait, averaged over …. On to chain 1 L4H, for which the screen value was 0.000811 average fractional NGS count over selection days 2 and 3 (reads of this peptide / all reads for the bait, averaged over …. For the variant chain 1 F13P, the screen value was 0.000191 average fractional NGS count over selection days 2 and 3 (reads of this peptide / all reads for the bait, averaged over …. On to chain 1 F13I, for which the screen value was 0.000387 average fractional NGS count over selection days 2 and 3 (reads of this peptide / all reads for the bait, averaged over ….

For the variant chain 1 F13R, the screen value is 0.00194 average fractional NGS count over selection days 2 and 3 (reads of this peptide / all reads for the bait, averaged over ….

chain 1 F13W: the screen value was 0.000898 average fractional NGS count over selection days 2 and 3 (reads of this peptide / all reads for the bait, averaged over ….

chain 1 F13H: the screen value was 0.000138 average fractional NGS count over selection days 2 and 3 (reads of this peptide / all reads for the bait, averaged over …. For chain 1 F13N, the screen value was 0.000127 average fractional NGS count over selection days 2 and 3 (reads of this peptide / all reads for the bait, averaged over …. The same measure, in the same setting: under chain 1 F13T stands 0.000161 average fractional NGS count over selection days 2 and 3 (reads of this peptide / all reads for the bait, averaged over …; under chain 1 F13V, 0.0169 average fractional NGS count over selection days 2 and 3 (reads of this peptide / all reads for the bait, averaged over …. For the variant chain 1 F13Y, the screen value was 0.00158 average fractional NGS count over selection days 2 and 3 (reads of this peptide / all reads for the bait, averaged over …. In the case of chain 1 F13K, the screen value is 0.000149 average fractional NGS count over selection days 2 and 3 (reads of this peptide / all reads for the bait, averaged over …. The same measure, in the same setting: to chain 1 F13L belongs 0.00118 average fractional NGS count over selection days 2 and 3 (reads of this peptide / all reads for the bait, averaged over …; to chain 1 F13G, 0.000483 average fractional NGS count over selection days 2 and 3 (reads of this peptide / all reads for the bait, averaged over …. In the case of chain 1 T9S, the screen value is 0.00132 average fractional NGS count over selection days 2 and 3 (reads of this peptide / all reads for the bait, averaged over ….

For chain 1 T9N, the screen value is 0.000633 average fractional NGS count over selection days 2 and 3 (reads of this peptide / all reads for the bait, averaged over ….

In the case of chain 1 T9H, the screen value was 0.000108 average fractional NGS count over selection days 2 and 3 (reads of this peptide / all reads for the bait, averaged over ….

Turning to chain 1 N2F, the screen value is 0.00201 average fractional NGS count over selection days 2 and 3 (reads of this peptide / all reads for the bait, averaged over ….

As to chain 1 N2S, the screen value was 0.000302 average fractional NGS count over selection days 2 and 3 (reads of this peptide / all reads for the bait, averaged over …. On to chain 1 N2G, for which the screen value was 0.00103 average fractional NGS count over selection days 2 and 3 (reads of this peptide / all reads for the bait, averaged over …. On to chain 1 N2T, for which the screen value was 0.000491 average fractional NGS count over selection days 2 and 3 (reads of this peptide / all reads for the bait, averaged over …. Consider chain 1 N2R, for which the screen value was 0.00144 average fractional NGS count over selection days 2 and 3 (reads of this peptide / all reads for the bait, averaged over …. Take chain 1 N2Y: the screen value was 0.000201 average fractional NGS count over selection days 2 and 3 (reads of this peptide / all reads for the bait, averaged over …. As to chain 1 N2M, the screen value was 0.000193 average fractional NGS count over selection days 2 and 3 (reads of this peptide / all reads for the bait, averaged over …. As for chain 1 N2E, the screen value was 0.000269 average fractional NGS count over selection days 2 and 3 (reads of this peptide / all reads for the bait, averaged over …. On to chain 1 N2L, for which the screen value is 0.00329 average fractional NGS count over selection days 2 and 3 (reads of this peptide / all reads for the bait, averaged over …. In the case of chain 1 N2H, the screen value was 0.00048 average fractional NGS count over selection days 2 and 3 (reads of this peptide / all reads for the bait, averaged over …. The same measure, in the same setting: to chain 1 N2Q belongs 0.000145 average fractional NGS count over selection days 2 and 3 (reads of this peptide / all reads for the bait, averaged over …; to chain 1 N2A, 0.000403 average fractional NGS count over selection days 2 and 3 (reads of this peptide / all reads for the bait, averaged over …; to chain 1 N2V, 0.00151 average fractional NGS count over selection days 2 and 3 (reads of this peptide / all reads for the bait, averaged over …. As to chain 1 N2W, the screen value is 0.00351 average fractional NGS count over selection days 2 and 3 (reads of this peptide / all reads for the bait, averaged over ….

As to chain 1 N2I, the screen value is 0.00124 average fractional NGS count over selection days 2 and 3 (reads of this peptide / all reads for the bait, averaged over ….

With chain 1 N2K, the screen value was 0.0015 average fractional NGS count over selection days 2 and 3 (reads of this peptide / all reads for the bait, averaged over …. On to chain 1 P14T, for which the screen value is 0.00017 average fractional NGS count over selection days 2 and 3 (reads of this peptide / all reads for the bait, averaged over …. chain 1 P14A: the screen value is 0.000189 average fractional NGS count over selection days 2 and 3 (reads of this peptide / all reads for the bait, averaged over …. In the case of chain 1 P14H, the screen value is 0.00165 average fractional NGS count over selection days 2 and 3 (reads of this peptide / all reads for the bait, averaged over …. chain 1 P14D: the screen value is 0.000322 average fractional NGS count over selection days 2 and 3 (reads of this peptide / all reads for the bait, averaged over …. With chain 1 P14S, the screen value was 0.00361 average fractional NGS count over selection days 2 and 3 (reads of this peptide / all reads for the bait, averaged over …. As to chain 1 P14Q, the screen value was 0.000451 average fractional NGS count over selection days 2 and 3 (reads of this peptide / all reads for the bait, averaged over …. Turning to chain 1 P14K, the screen value was 0.000129 average fractional NGS count over selection days 2 and 3 (reads of this peptide / all reads for the bait, averaged over ….

With chain 1 P14E, the screen value is 0.000426 average fractional NGS count over selection days 2 and 3 (reads of this peptide / all reads for the bait, averaged over …. As for chain 1 P14L, the screen value is 0.00233 average fractional NGS count over selection days 2 and 3 (reads of this peptide / all reads for the bait, averaged over …. Consider chain 1 P14V, for which the screen value was 0.00024 average fractional NGS count over selection days 2 and 3 (reads of this peptide / all reads for the bait, averaged over …. For the variant chain 1 L3H, the screen value is 0.00258 average fractional NGS count over selection days 2 and 3 (reads of this peptide / all reads for the bait, averaged over …. As for chain 1 L3T, the screen value is 0.000316 average fractional NGS count over selection days 2 and 3 (reads of this peptide / all reads for the bait, averaged over ….

As to chain 1 L3A, the screen value was 0.000703 average fractional NGS count over selection days 2 and 3 (reads of this peptide / all reads for the bait, averaged over …. Same read-out and setting: to chain 1 L3W belongs 0.000758 average fractional NGS count over selection days 2 and 3 (reads of this peptide / all reads for the bait, averaged over …; to chain 1 L3V, 0.000155 average fractional NGS count over selection days 2 and 3 (reads of this peptide / all reads for the bait, averaged over …; to chain 1 L3D, 0.000942 average fractional NGS count over selection days 2 and 3 (reads of this peptide / all reads for the bait, averaged over …. On the same count and under the same terms, under chain 1 L3G stands 0.000706 average fractional NGS count over selection days 2 and 3 (reads of this peptide / all reads for the bait, averaged over …; under chain 1 L3Q, 0.00206 average fractional NGS count over selection days 2 and 3 (reads of this peptide / all reads for the bait, averaged over …. chain 1 L3M: the screen value is 0.00994 average fractional NGS count over selection days 2 and 3 (reads of this peptide / all reads for the bait, averaged over ….

With chain 1 L3S, the screen value is 0.00105 average fractional NGS count over selection days 2 and 3 (reads of this peptide / all reads for the bait, averaged over …. Consider chain 1 L3I, for which the screen value is 0.000141 average fractional NGS count over selection days 2 and 3 (reads of this peptide / all reads for the bait, averaged over …. Same read-out and setting: to chain 1 L3K belongs 0.000404 average fractional NGS count over selection days 2 and 3 (reads of this peptide / all reads for the bait, averaged over …. With chain 1 L3E, the screen value is 0.00523 average fractional NGS count over selection days 2 and 3 (reads of this peptide / all reads for the bait, averaged over …. Turning to chain 1 A15F, the screen value is 0.00934 average fractional NGS count over selection days 2 and 3 (reads of this peptide / all reads for the bait, averaged over …. Turning to chain 1 A15M, the screen value was 0.000532 average fractional NGS count over selection days 2 and 3 (reads of this peptide / all reads for the bait, averaged over ….

chain 1 A15D: the screen value is 0.000361 average fractional NGS count over selection days 2 and 3 (reads of this peptide / all reads for the bait, averaged over …. Regarding chain 1 A15S, the screen value was 0.00474 average fractional NGS count over selection days 2 and 3 (reads of this peptide / all reads for the bait, averaged over …. Regarding chain 1 A15T, the screen value was 0.000185 average fractional NGS count over selection days 2 and 3 (reads of this peptide / all reads for the bait, averaged over …. Regarding chain 1 A15V, the screen value was 0.00112 average fractional NGS count over selection days 2 and 3 (reads of this peptide / all reads for the bait, averaged over ….

chain 1 A15Y: the screen value was 0.00082 average fractional NGS count over selection days 2 and 3 (reads of this peptide / all reads for the bait, averaged over ….

The next test covers variants of B2. Described as above.
As to chain 1 D12H, the screen value is 0.000291 average fractional NGS count over selection days 2 and 3 (reads of this peptide / all reads for the bait, averaged over …. In the case of chain 1 Y7V, the screen value was 0.000965 average fractional NGS count over selection days 2 and 3 (reads of this peptide / all reads for the bait, averaged over ….

For chain 1 M14I, the screen value was 0.00149 average fractional NGS count over selection days 2 and 3 (reads of this peptide / all reads for the bait, averaged over ….

As for chain 1 Q2Y, the screen value is 0.00483 average fractional NGS count over selection days 2 and 3 (reads of this peptide / all reads for the bait, averaged over ….

Take chain 1 A1M: the screen value is 0.000181 average fractional NGS count over selection days 2 and 3 (reads of this peptide / all reads for the bait, averaged over ….
